Reference: PubChem BioAssay AID1508624 (National Center for Advancing Translational Sciences (NCATS), 2021)
Out of some 48,000 compounds screened, about 120 (0.25%) were called active. Inconclusive results (about 4%) are left out. The call rests on the fitted dose curve; in most records, active means well fitted activation curve with a large enough effect; inconclusive means small, poorly fitted or top-dose-only effect, or another doubt; inactive means no such curve, though single readings can be large or run the other way. Some of the results follow.

Experiment: Primary qHTS for Identification of Small Molecule Activators of Huntingtin-Antisense Promoter Activity; further: nearly all actives have a fitted effect of over 55% in size
Conditions: HEK293 HTT-AS promoter firefly luciferase reporter (activity 0% = vehicle and -100% = no light), 24 h; series mostly up to 57.5 µM; activity change, positive = activation: at the top concentration
In short: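 Firefly luciferase readout (Dual-Glo, 10 min RT) after 24 h, 37 °C compound exposure (final up to 57.5 uM) of HEK293 reporter cells cultured 24 h beforehand; PTC124 at 50 uM final as control inhibitor; activity scaled vehicle 0%, zero RLU -100%.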

Activity change, positive = activation, inactive:
COc1ccc2cc(-c3nc(-c4ccc(N(C)C)cc4)no3)c(=O)oc2c1 1.62%, CCCN(Cc1cccs1)C(=O)Nc1cc(C)cc(C)c1 -14.3%, Cc1nn(C)c2c1c(-c1ccccc1)cc(=O)n2Cc1ccc(F)cc1Cl -16.8%, CCN(CC)C(=O)Cn1c(=O)n(-c2ccc(Cl)cc2)c(=O)c2c3c(sc21)CCCCC3 -9.14%, COc1ccc(NS(=O)(=O)c2ccc3c(c2)CC(C)N3C(=O)C2CCC2)cc1OC (stereo not drawn) -49.7%, Cc1ccc(NS(=O)(=O)c2ccc3nc(-c4ccccc4)[nH]c3c2)cc1Cl -36.5%, COc1ccc(Br)cc1CNC(=O)C1CCN(c2nnc(-n3cccc3CNc3ccc(C)cc3)s2)CC1 -29.2%, CCn1cc(C(=O)N(C)c2cc(C)ccc2C)c2cc(OC)c(OC)cc2c1=O -18.4%, O=S(=O)(Nc1nc2n(n1)C(c1ccc(F)cc1)C=C(c1ccc(Cl)cc1)N2)c1ccccc1 (stereo not drawn) -9.61%, CSc1nn(CC(=O)Nc2ccc(C)cc2C)c(N)c1S(=O)(=O)c1ccc(Cl)cc1 -32.4%, COc1cc2c(C(=O)N3CCN(c4ccc(F)cc4)CC3)cn(CC(C)C)c(=O)c2cc1OC -15.7%, CCOc1ccccc1NC(=O)C1CCCN(S(=O)(=O)c2cccs2)C1 (stereo not drawn) -16.3%, COc1ccc(N2CCN(C(=O)c3ccc4c(c3)CCN4S(=O)(=O)c3ccccc3)CC2)cc1 -21.6%, Cc1c(C(=O)N(C)Cc2ccccc2)sc2nc(-c3ccc(F)cc3)cn12 -33.8%, c1ccc(-c2oc3ncnc(NC[C@@H]4CCCO4)c3c2-c2ccccc2)cc1 -40%, NC(=O)c1ccc(I)c([N+](=O)[O-])c1 -1.32%, COc1cc(NC(=O)CSc2cc(=O)n(C)c3ccccc23)cc(OC)c1OC 0%, CC(NCc1ccc2c(c1)n(C)c(=O)n2C)c1ccccc1 (stereo not drawn) 11.6%, Cc1ccc(-c2cn3c(n2)sc2cc(C(=O)NC4CCCCCC4)ccc23)cc1 13.4%, COCCCNC(=O)C1CCN(Cc2cc3ccccc3n2Cc2cccc(Cl)c2)CC1 -26%, Cc1noc2ncnc(NCCc3ccccc3)c12 -61.1%, CCC12CN3CC(CC)(CN(C1)C3c1c[nH]c3ccccc13)C2=O (stereo not drawn) -31.2%, CCOC(=O)c1ccccc1NC(=O)N1CCCn2nc(C)cc21 -19.3%, Cc1cc(C)cc(N2C(=O)CSC23C(=O)N(CC(=O)NC2CCCCC2)c2ccccc23)c1 (stereo not drawn) -33.5%, COc1ccc(C(=O)Nc2cccc(OCc3cc(=O)n4c5c(sc4n3)CCCC5)c2)cc1OC 11.8%, CCc1ccc(NC(=O)Cn2c(=O)n(Cc3ccc(C)cc3)c(=O)c3cccnc32)cc1 -3.6%, CC(=O)N1CCCc2cc(S(=O)(=O)N3CCC(C(=O)N(C)C4CCCCC4)CC3)ccc21 -24.1%, Cc1ccccc1C(=O)Nc1nnc(S(=O)(=O)N2CCc3ccccc32)s1 4.35%, CCCCOc1ccccc1NC(=O)CC1Sc2ccccc2NC1=O (stereo not drawn) -33.6%, COc1ccccc1Cc1nc2ccccc2nc1SCC(=O)N1CCCCC1 -22.5%, COc1ccc(NC(=O)c2sc3nc4n(c(=O)c3c2C)CCC4)c(OC)c1 -14.9%, CCOC(=O)N1CCN(c2ncc3c(n2)CC(c2ccc(OC)c(OC)c2)CC3=O)CC1 (stereo not drawn) -16.2%, Cc1noc(/C=C/c2ccccc2F)c1S(=O)(=O)N1CCC(C(=O)NCc2ccco2)CC1 -29.5%, COc1ccc(CCNC(=O)CCc2c(C)nc3cc(-c4ccc(Cl)cc4)nn3c2C)c(OC)c1 -74.3%, N#Cc1c(-c2ccccc2)cc(-c2ccccc2)nc1SCC(O)CS(=O)(=O)Cc1ccccc1 (stereo not drawn) -39%, O=C(Cn1cc(SCc2ccc(F)cc2)c2ccccc21)N1CCCCCC1 -8.1%, O=C(CCc1ccccc1)N(Cc1cccnc1)c1nc2ccc(F)cc2s1 -3.16%, CCOCCCNC(=O)C1CCCN(c2ncnc3onc(C)c23)C1 (stereo not drawn) -30%, CCOc1ccc(NC(=O)c2cnn(-c3ccccc3)c2-n2cccc2)cc1 -20.2%, CCN(CC)C(=O)CSc1nc2c(c(=O)n(C)c(=O)n2C)n1Cc1ccccc1 7.76%, COc1ccc(OC)c(CCNC(=O)c2cnn(-c3ccccc3)c2-n2cccc2)c1 -38.5%, O=C(CCS(=O)(=O)c1cc(Br)cc2c1N(C(=O)C1CC1)CC2)N1CCN(c2ccccc2)CC1 -12.7%, CNC(=O)C1CCN(C(=O)N2CC(C)Oc3ccc(Cl)cc32)CC1 (stereo not drawn) -1.22%, CCOC(=O)C1CCCN(C(=O)c2ccccc2NC(=O)c2nsc3ccccc23)C1 (stereo not drawn) -4.64%, CCOc1ccc(C2CC(=O)c3c([nH]c(C(=O)OCCOc4ccccc4)c3C)C2)cc1 (stereo not drawn) -25.6%, Cc1nnc2c3ccccc3nc(N3CCN(c4ccccc4)CC3)n12 -11.9%, O=C(c1ccc2c(c1)N(Cc1cccc(Cl)c1)C(=O)c1ccccc1S2(=O)=O)N1CCCC1 -36.9%, Cc1ccccc1Cn1nnc2c(=O)[nH]c(C3CCCN(C(=O)c4ccc(C(C)(C)C)cc4)C3)nc21 (stereo not drawn) -27.3%, O=C(CSc1nc2ccsc2c(=O)n1-c1ccc(Br)cc1)NCc1ccccc1 -16.7%, COc1cc2ncnc(-n3nc(-c4ccccn4)nc3N)c2cc1OC -62.2%, O=C(CSc1nnc2scc(-c3ccccc3)n12)Nc1ccc(Cl)cc1 10.9%, O=C(Nc1cccc(C(F)(F)F)c1)Nc1cccs1 -4.68%, CCCCN(CC)C(=O)C1CCCN(c2ncnc3c2nc2n3CCCCC2)C1 (stereo not drawn) -18.7%, CCOc1ccc(CNC(=O)CCn2c(=O)c3cccn3c3ccc(F)cc32)cc1 -19.1%, CCOC(=O)c1ccc(NC(=O)c2ccc(CN3C(=O)CCn4nc(C)cc43)cc2)cc1 -6.49%, O=C(NCc1nc2ccccc2[nH]1)c1cccc(Cl)c1 -8.05%, O=C(Cn1c(=O)c2ccccc2n2nncc12)Nc1cccc(F)c1 -2.17%, CCc1cccc(C)c1NC(=O)CCCN1C(=O)C(c2ccccc2)Oc2cccnc21 (stereo not drawn) -28.5%, CCOC(=O)c1c(C)[nH]c(C)c1S(=O)(=O)N(C)CC(=O)NCc1cccc(Br)c1 -16.2%, COc1ccc(NC(=O)NCCn2nnc3cc(S(=O)(=O)N(C)C)ccc32)cc1 0.287%, Cc1ccccc1Cn1cnc2nc3c(cc2c1=O)CC(C)CC3 (stereo not drawn) 13.1%, CCc1cccc(C)c1NC(=O)CCCn1nc(C)c2sc3ccccc3c2c1=O -10.1%, Cc1cc(N2CCCCC2)nc2ccc(NC(=O)/C=C/c3ccc(OCCC(C)C)cc3)cc12 -0.484%, Cc1ccc2c(CNC3CCCC3)c(C(=O)O)n(Cc3ccc(F)cc3)c2c1 -8.74%, CN(C(=O)CSc1nc2ccccc2n1CC(=O)N(C)C1CCCCC1)c1ccccc1 -2.97%, O=C(O)c1ccc(O)c2ncc(N3CCOCC3)cc12 -2.52%, Cc1cccc(NC(=O)CN2C(=O)CCn3nc(-c4cccn4C)cc32)c1C -12.1%, COc1ccc(NC(=O)C2CCN(S(=O)(=O)c3cc(-c4noc(C)n4)ccc3C)CC2)cc1 -33.9%, Cc1ccc(C)c(NC(=O)c2cc(S(=O)(=O)NCCc3ccccc3)ccc2F)c1 -22.7%, CCOC(=O)C1CCCN(C(=O)c2ccc3c(c2)N(Cc2ccc(Cl)cc2)C(=O)c2ccccc2S3=O)C1 (stereo not drawn) -35.9%, CCCCNC(=O)CCn1c(=O)c2ccccc2n(Cc2cccc(Cl)c2)c1=O -11.3%, Cc1noc(/C=C/c2ccccc2F)c1S(=O)(=O)N1CCC(C(=O)Nc2ccc(C#N)cc2)CC1 -15.6%, COc1cccc(NC(=O)Nc2ccc3nc(N4CCN(C)CC4)cc(C)c3c2)c1 11.1%, CCOC(=O)c1cnc2ccc(OCC)cc2c1N1CCN(c2ccccc2F)CC1 -29.3%, CCOC(=O)C1CCC(CN(Cc2ccc(OC)cc2)S(=O)(=O)c2ccc(F)c(C(=O)Nc3cc(C)ccc3C)c2)CC1 (stereo not drawn) -13.5%, Cc1nc(N2CCCC2)c2c(C(=O)Nc3ccc(Br)cc3F)c(C)oc2n1 -27.8%, CCOc1ccc(NC(=O)c2ccc3snnc3c2)cc1 9.39%, CC(C)NC(=O)C1CCC(Cn2c(=O)c3sccc3n(CC(=O)Nc3ccccc3)c2=O)CC1 (stereo not drawn) -15.5%, Cc1ccccc1C(=O)Nc1nc(-c2ccc(Br)cc2)ns1 -30.7%, COc1ccc(-c2csc3nc(-c4ccccc4)oc(=O)c23)cc1OC -9.98%, CCOC(=O)c1c(C)n(-c2ccccc2)c2ccc(OC(=O)c3cccc(Cl)c3)cc12 -4.45%, Cc1cccc(-c2nc(CSc3nncn4c3cc3sccc34)c(C)o2)c1 -5.04%, CCOC(=O)c1ccc(CN(Cc2ccccc2)S(=O)(=O)c2ccc(Cl)cc2)cc1 -15%, CC(C)Oc1ccc(CNC(=O)C2CCN(C(=O)N3CC(C)Oc4ccccc43)CC2)cc1 (stereo not drawn) -32.8%, CC(=O)c1cc(-c2ccccc2)n(CC(=O)NCCc2ccc(C)cc2)c1C -19.2%, FC(F)(F)c1cc(-c2cccc(Br)c2)nc2ncnn12 -3.37%, Cc1ccc(Cl)cc1NC(=O)CCn1c(=O)c2cccn2c2cccnc21 -3.11%, Cc1ccc(NC(=O)Cn2cc3c(n2)CCCC3)c(C)c1 -9.76%, O=C(NC1CCCCC1)c1ccc(CSc2nc3ccncc3n2Cc2ccccc2F)cc1 1.75%, COc1ccc(NC(=O)CSc2nc(-c3cccs3)cc(C(F)(F)F)n2)c(OC)c1 -23.2%, O=C(CSCc1cnn(-c2ccccc2)c1-n1cccc1)NCc1ccc(F)cc1 -24.1%, CCN(CC)CCCNC(=O)CSc1nc(-c2ccc(OC)cc2)cc(C(F)(F)F)n1 2.79%, Oc1c(C(c2ccccc2Cl)N2CCN(Cc3ccccc3)CC2)sc2nc(-c3ccco3)nn12 (stereo not drawn) -11.2%, CCc1ccc(NC(=O)CSc2ccc(-c3cccs3)nn2)cc1 -15.5%, Cc1noc(Cn2c(=O)c3cc4c(cc3n(CC(=O)Nc3ccccc3F)c2=O)OCO4)n1 -10.5%, CC1CCc2c(sc(NC(=O)Cn3nnc(-c4ccc(C(F)(F)F)cc4)n3)c2C#N)C1 (stereo not drawn) 3.52%, COc1ccc(CC(=O)NCCc2sc(-c3ccc(Cl)cc3)nc2C)cc1OC -40.9%, CC1CCN(c2cc3c(cc2F)c(=O)c(S(=O)(=O)c2cccc(Cl)c2)cn3Cc2ccccc2)CC1 4.66%
